# The list shows a part of the results.
# Assays:
# HSkMC = human skeletal muscle cells; assay: cytotoxicity call (relative viability < 0.9); details: 10 µM
# HepG2 = assay: cytotoxicity call (relative viability < 0.9); details: 10 µM
# S. aureus RN4220 = assay: growth inhibition call (relative growth <= 0.2); details: 50 µM
SMILES,cytotoxicity call (HSkMC),cytotoxicity call (HepG2),growth inhibition call (S. aureus RN4220)
C[C@@H]1CN([C@H](C)CO)C(=O)c2cc(NC(=O)CCN3CCOCC3)ccc2O[C@H]1CN(C)S(=O)(=O)c1cn(C)cn1,inactive,inactive,inactive
COc1ccc(CN(C)C[C@@H]2OCCCC[C@H](C)Oc3ccc(NC(=O)C4CCCCC4)cc3C(=O)N([C@H](C)CO)C[C@H]2C)cc1,inactive,inactive,inactive
CCCCOc1ccc(OCCCN2CCOCC2)cc1.Cl,inactive,inactive,inactive
COc1ccc2c3c(n(c2c1)C)[C@H](CO)N(CC1CC1)C[C@]13CCN(CC1)S(=O)(=O)c1cn(cn1)C,inactive,inactive,inactive
CO[C@H]1CN(C)C(=O)c2cc(NS(C)(=O)=O)ccc2OC[C@@H](C)N(C(=O)c2ccc3c(c2)OCO3)C[C@H]1C,inactive,inactive,inactive
Cc1ccc(S(=O)(=O)N(C)C[C@@H]2OCCCC[C@@H](C)Oc3ccc(NC(=O)c4ccccc4)cc3C(=O)N([C@H](C)CO)C[C@@H]2C)cc1,inactive,inactive,inactive
O=C(O)c1cc(O)c2c(c1)C(C1c3cc(C(=O)O)cc(O)c3C(=O)c3c(OC4OC(CO)C(O)C(O)C4O)cccc31)c1cccc(OC3OC(CO)C(O)C(O)C3O)c1C2=O (stereo not drawn),inactive,active,inactive
CC(C)NC(=O)N(C)C[C@H]1Oc2ccc(NS(=O)(=O)c3ccc(Cl)cc3)cc2CC(=O)N([C@H](C)CO)C[C@@H]1C,inactive,inactive,inactive
CCCCNC(=O)NS(=O)(=O)c1ccc(C)cc1,inactive,inactive,inactive
COc1cccc(-c2ccc([C@@H](Oc3cc(-c4ccc(C[C@H](N)C(=O)O)cc4)nc(N)n3)C(F)(F)F)cc2)c1,inactive,inactive,inactive
COc1ccc(NC(=O)N(C)C[C@H]2OCc3cn(nn3)CCCC(=O)N([C@H](C)CO)C[C@H]2C)c(OC)c1,inactive,inactive,inactive
C[C@@H]1CN([C@@H](C)CO)C(=O)Cc2cc(NS(=O)(=O)c3cn(C)cn3)ccc2O[C@H]1CN(C)S(=O)(=O)c1cn(C)cn1,inactive,inactive,inactive
C[C@H]1CN([C@@H](C)CO)S(=O)(=O)c2ccc(C#Cc3cccc(F)c3)cc2O[C@H]1CN(C)CC1CC1,inactive,inactive,inactive
C[C@@H]1CCCCO[C@@H](CN(C)S(=O)(=O)c2ccccc2)[C@H](C)CN([C@@H](C)CO)C(=O)c2cc(NS(=O)(=O)c3cn(C)cn3)ccc2O1,inactive,inactive,inactive
COCC#Cc1ccc2c(c1)O[C@H](CN(C)S(=O)(=O)c1cccc(OC)c1)[C@@H](C)CN([C@H](C)CO)S2(=O)=O,inactive,inactive,inactive
OC[C@H]1O[C@H](OC[C@H]2O[C@@H](O)[C@H](O)[C@@H](O)[C@@H]2O)[C@H](O)[C@@H](O)[C@@H]1O,inactive,inactive,inactive
CN1C(=O)c2cc(NC(=O)c3cscn3)ccc2OC[C@@H]2O[C@@H](CC(=O)N3CCOCC3)CC[C@H]21,inactive,inactive,inactive
O=c1nc[nH]c2ncccc12,inactive,inactive,inactive
CO/N=[N+](\[O-])N1CCC[C@H](C(N)=O)C1,inactive,inactive,inactive
C[C@@H]1CCCCO[C@H](CN(C)Cc2ccncc2)[C@@H](C)CN([C@H](C)CO)C(=O)c2cc(NS(C)(=O)=O)ccc2O1,inactive,inactive,inactive
Cc1noc(C)c1S(=O)(=O)Nc1ccc2c(c1)C(=O)N([C@H](C)CO)C[C@H](C)[C@H](CN(C)C)OCCCC[C@@H](C)O2,inactive,inactive,inactive
COc1ccc2c3c1OC1CC(O)C=CC31CCN(C)C2 (stereo not drawn),inactive,inactive,inactive
COc1ccc(S(=O)(=O)N(C)C[C@@H]2Oc3ccc(NS(=O)(=O)c4cccs4)cc3CC(=O)N([C@@H](C)CO)C[C@@H]2C)cc1,inactive,inactive,inactive
Cc1noc(C)c1S(=O)(=O)Nc1cccc2c1O[C@H](CN(C)S(C)(=O)=O)[C@H](C)CN([C@H](C)CO)C2=O,inactive,inactive,inactive
COc1ccccc1S(=O)(=O)N(C)C[C@H]1OCc2cnnn2CCCC(=O)N([C@H](C)CO)C[C@H]1C,inactive,inactive,inactive
C[C@H](CO)N1C[C@H](C)[C@H](CN(C)C(=O)Nc2cccc3ccccc23)Oc2ccc(NC(=O)CCCCCC(=O)Nc3ccccc3N)cc2CC1=O,inactive,inactive,inactive
